# Source: PubChem BioAssay AID651820 (National Center for Advancing Translational Sciences (NCATS), 2012)
# About 12,000 (3.5%) of roughly 340,000 compounds were called active. This list was built around the results that the source calls inconclusive (neither active nor inactive); the mix of calls is not that of the screen. The call rests on the fitted dose curve; in most records, active means well fitted inhibition curve with a large enough effect; inconclusive means small, poorly fitted or top-dose-only effect, or another doubt; inactive means no such curve, though single readings can be large or run the other way. No potency is given beside an inconclusive call; the fits are too rough.
# Assay: qHTS Assay for Inhibitors of Hepatitis C Virus (HCV)
# Conditions: Huh7.5.1 HCVcc-Cre (HCVcc is cell-culture hepatitis C virus) infection, luciferase reporter, 44 h; activity change, negative = inhibition: at 41.8 µM (top of the series) unless noted
# Procedure, shortened: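 Whole-lifecycle infectious HCVcc-Cre system; cells 1,000/well, compound then virus (~0.5 moi) added 4 h after plating, 44 h culture. Luciferase read 15 sec following 15 min substrate incubation, room temp.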
# On the % scale 0 is the no-effect control and ±100 the full control effect; potency means the concentration at half of the fitted maximal effect; tags describe the fitted curve by direction and shape.
Structure (SMILES),"activity change, negative = inhibition",Potency
N#C/C=C1/NC(=O)c2ccccc2S1,inactive: 17.5%,–
c1ccc(-c2nc(NCc3cccnc3)c3ccccc3n2)cc1,–,active: 10 µM
O=C(NCC(c1ccco1)N1CCN(c2ccccc2F)CC1)c1ccc2c(c1)OCO2 (stereo not given),–,"inconclusive [inhibitor, full curve]"
CCOC(=O)C(O)(c1ccc(NC(=S)NC(=O)c2ccc(Cl)cc2Cl)c(C)c1)C(F)(F)F (stereo not given),–,"inconclusive [inhibitor, single point]"
O=C(CN(C1CCCCC1)S(=O)(=O)c1ccc(F)cc1)NCC1CCCO1 (stereo not given),–,"inconclusive [inhibitor, single point]"
CC[C@@H]1C=C(C(=O)O)[C@H](c2ccc(F)cc2)N1S(=O)(=O)c1ccc(C)cc1,–,"inconclusive [inhibitor, single point]"
COc1ccc(CC(=O)Nc2cccc(S(=O)(=O)N3CCOCC3)c2)cc1OC,–,active: 3.55 µM
Cc1cc(C)cc(CC(Cc2nc3ccccc3[nH]2)c2nc3ccccc3[nH]2)c1 (stereo not given),–,active: 5.01 µM
Cc1ccc(OCCN(C)C(=O)C2CCC(=O)N(CC3CCCCC3)C2)cc1 (stereo not given),–,"inconclusive [inhibitor, partial curve]"
Cc1ccnc(OC(C(=O)O)C(OCc2ccccc2)(c2ccc(F)cc2)c2ccc(F)cc2)n1 (stereo not given),inactive: 3.54%,–
CC(C)c1ccc(C(=O)COC(=O)C(O)c2ccccc2)cc1 (stereo not given),–,"inconclusive [inhibitor, partial curve]"
O=[N+]([O-])c1cccnc1NCCc1c[nH]c2ccccc12,–,"inconclusive [inhibitor, partial curve]"
CN1CCc2c(sc3nc(SCC(=O)N4CCCCC4)n(-c4ccccc4)c(=O)c23)C1,–,"inconclusive [inhibitor, partial curve]"
O=C(Nc1ncc(Cc2ccccc2Cl)s1)c1ccc(-c2cccc([N+](=O)[O-])c2)o1,–,active: 22.4 µM
O=C(Nc1ncccc1O)c1ccc(S(=O)(=O)Nc2ccccc2)cc1,inactive: 24.9%,–
COc1ccc(OC)c(C2=NOC(C(=O)Nc3cccc(C(C)=O)c3)C2)c1 (stereo not given),inactive: -26.1%,–
O=C(COc1ccc(Br)cc1)N1CCN(S(=O)(=O)/C=C/c2ccccc2)CC1,–,"inconclusive [inhibitor, single point]"
COc1ccc(-c2cc(C(=O)N(C)CC(=O)Nc3ccccc3C(F)(F)F)c3ccccc3n2)cc1OC,–,"inconclusive [inhibitor, single point]"
Cc1ccc2nc(NC(=O)CN3C(=O)NC4(CCCCC4)C3=O)sc2c1,–,"inconclusive [inhibitor, single point]"
CCCc1nc(N2CCCC2)c(C#N)c2c1CCCC2,–,"inconclusive [inhibitor, partial curve]"
COc1ccccc1Oc1ncnc2c1oc1ccccc12,inactive: -27.3%,–
COc1ccccc1OCCCn1c(=O)sc2ccccc21,–,"inconclusive [inhibitor, single point]"
C[C@H]1CCC[C@]2(C)C[C@H]3OC(=O)C(CN4CCCCCC4)[C@H]3C=C12 (stereo not given in full),–,"inconclusive [inhibitor, single point]"
O=C1C(NS(=O)(=O)c2cccs2)=C(N2CCOCC2)C(=O)c2ccccc21,inactive: -0.872%,–

Structure (SMILES),"activity change, negative = inhibition",Potency
COc1ccc(/C=C(\C#N)c2nc3ccc(C)cc3[nH]2)cc1Oc1ccc(C(F)(F)F)cc1[N+](=O)[O-],–,"inconclusive [inhibitor, full curve]"
Cc1ccc(CNC(=O)C(c2ccccc2)c2ccccc2)cc1,inactive: -0.509%,–
COc1cccc(CN2CCN(Cc3ccc(C#CC(C)(C)O)s3)CC2CCO)c1 (stereo not given),–,"inconclusive [inhibitor, single point]"
CNC(=O)c1ccc(-c2cc3onc(-c4ccccc4)c3c(=O)n2C)cc1,–,"inconclusive [inhibitor, partial curve]"
N#Cc1nc(COc2ccccc2)oc1NCCCn1ccnc1,inactive: 4.28%,–
COc1ccc(Cn2c3nc4ccccc4nc3c3c(=O)n(Cc4ccco4)cnc32)cc1,–,"inconclusive [inhibitor, single point]"
CCc1ccc(C(=O)NC(=S)Nc2ccccc2N2CCOCC2)cc1,–,"inconclusive [inhibitor, single point]"
CCOC(=O)c1ccccc1NC(=O)C=C(C)C,inactive: 3.13%,–
Cc1cccc(/C=N\NC(=O)c2ccc(Cl)cc2)c1O,–,"inconclusive [inhibitor, single point]"
O=Cc1sc(Nc2ccccc2)nc1Cl,–,"inconclusive [inhibitor, single point]"
N#Cc1c(-c2ccccc2)cc(-c2ccc3c(c2)OCO3)[nH]c1=O,inactive: 31.6%,–
C=CCN(CC=C)S(=O)(=O)c1ccc(C(=O)Nc2nc3c(s2)CCc2ccccc2-3)cc1,–,"inconclusive [inhibitor, full curve, poor fit]"
CCOc1ccc(C(=O)Nc2cccc([N+](=O)[O-])c2)cc1Br,–,active: 7.08 µM
COc1ccc([C@H]2CC(=O)C=C(c3ccc(O)cc3)C2)cc1OC,–,"inconclusive [inhibitor, partial curve]"
Cc1ccc(-n2cc(CN(C)Cc3nccn3C)c(-c3ccc(F)cc3)n2)cc1,inactive: -18.1%,–
Cc1ccc(S(=O)(=O)Nc2cc(NC(=O)CN3CCOCC3)ccc2Cl)cc1,inactive: 0.747%,–
COc1ccc(CNC(=O)Cc2cn(C)c3ccccc23)c(OC)c1,–,"inconclusive [inhibitor, single point]"
COc1cc(/C=N/NS(=O)(=O)c2ccc3ccccc3c2)ccc1OCc1ccc(C(=O)O)cc1,inactive: -0.988%,–
C/C(=N\NC(=S)NC(C)C)c1ccccc1OC(F)F,–,active: 14.1 µM
O=c1c2c3c(sc2ncn1Cc1ccc(F)cc1)CCC3,–,"inconclusive [inhibitor, single point]"
COc1ccc(-c2csc3ncnc(N4CCN(c5ccccc5[N+](=O)[O-])CC4)c23)cc1,–,active: 15.8 µM
Cc1nc(NC(=O)COC(=O)C2CC2C)c(Cl)cc1Cl (stereo not given),inactive: -3.85%,–
O=C(c1ccc(COc2c(F)c(F)cc(F)c2F)o1)N1CCN(c2ccccc2)CC1,inactive: 3.06%,–
O=C1OC2(c3ccccc31)c1ccccc1-c1ccccc12,–,"inconclusive [inhibitor, partial curve]"

Structure (SMILES),"activity change, negative = inhibition",Potency
COc1ccc2c(c1)/C(=C\c1cccc(/C=C3/C(=O)Nc4ccc(OC)cc43)n1)C(=O)N2,–,active: 2.82 µM
Cc1cc(C)c(C(=O)Nc2ccc(Br)c(C(F)(F)F)c2)c(C)c1,–,"inconclusive [inhibitor, partial curve, poor fit]"
Cc1ccccc1Nc1c([N+](=O)[O-])ccc2c1=NC1(CCCCC1)N=2,–,"inconclusive [inhibitor, single point]"
CCOc1ccccc1N(CC(=O)Nc1ccc(S(=O)(=O)N2CCOCC2)cc1)S(=O)(=O)c1ccccc1,–,"inconclusive [inhibitor, partial curve]"
CCCCNc1nc(N)nc(-c2cc(Cl)ccc2O)n1,–,"inconclusive [inhibitor, partial curve]"
O=C(Nc1ccccc1N1CCN(C(=O)c2ccccc2)CC1)c1ccc([N+](=O)[O-])o1,–,"inconclusive [inhibitor, single point]"
Cc1ccc(CN2CCCCC2C(=O)Nc2ccc(Oc3cccnc3)cc2)o1 (stereo not given),–,"inconclusive [inhibitor, single point]"
COc1ccc(Cc2noc(CN3CCC(c4ccncc4)CC3)n2)cc1OC,–,"inconclusive [inhibitor, partial curve]"
N/C(Cc1ccc(Cl)cc1)=N\OC(=O)C1CCCCC1,inactive: 16.1%,–
Cc1c(Cl)cccc1NC(=O)CSc1nc2ncc(Cl)cc2[nH]1,–,"inconclusive [inhibitor, single point]"
CC(C)N(C(=O)c1ccc2nc(-c3ccccc3)c(-c3ccccc3)nc2c1)C(C)C,–,"inconclusive [inhibitor, single point]"
CCc1ccc(-c2nc(CN3CCC(C(=O)NCCc4ccc(OC)c(OC)c4)CC3)c(C)o2)cc1,–,"inconclusive [inhibitor, partial curve]"
COc1ccc(NC(=O)Nc2nc3ccccc3s2)cc1,inactive: -8.42%,–
Cc1ccc(CNC(=O)COC(=O)CCOc2ccc(C)cc2)cc1,inactive: -5.65%,–
CCCC(=O)NC1CCc2cc(OC)c(OC)c(OC)c2-c2ccc(OC)c(=O)cc21 (stereo not given),–,"inconclusive [inhibitor, full curve, poor fit]"
O=C(CN1C(=O)COc2ccccc21)Nc1ccc(N2CCOCC2)cc1,inactive: 8.32%,–
Cc1cc(OCCCC(=O)N2CCCCC2)cc(C)c1Cl,–,"inconclusive [inhibitor, full curve, poor fit]"
COc1ccc(-c2c3c(cc4ncn(Cc5ccccc5)c24)COC3=O)cc1,–,"inconclusive [inhibitor, partial curve]"
O=C(c1ccc(N2CCN(C(=O)c3ccccc3)CC2)cc1)c1cccc(F)c1,–,"inconclusive [inhibitor, single point]"
CC(=O)c1cn(CC(=O)Nc2ccc(C)cc2)c2ccccc12,–,"inconclusive [inhibitor, partial curve]"
COc1ccc(C(=O)Nc2ccccc2N2CCOCC2)cc1S(=O)(=O)N1CCCC1,–,"inconclusive [inhibitor, partial curve]"
CC1CCN(S(=O)(=O)c2ccc3c(c2)oc(=O)n3CC(=O)NCc2ccc3c(c2)OCO3)CC1,–,"inconclusive [inhibitor, partial curve]"
